{"source": "PubChem BioAssay AID1345083", "about": "(National Center for Advancing Translational Sciences (NCATS), 2018)", "note": "Values joined by “and” are separate entries in the source; they are usually repeats but may differ in a detail not shown here. Equal values may be shown once. About 6,200 (6.6%) of roughly 94,000 compounds were called active. Inconclusive means that the source gave no clear call. Such entries were picked first, then a sample of the others. Calls come from the whole dose curve; as a rule, active = well fitted inhibition curve with a large enough effect; inconclusive = small, poorly fitted or top-dose-only effect; inactive = flat fitted curve, though single readings scatter. Potencies beside an inconclusive call are fits to weak or partial responses and may not hold up. Potency is the fitted concentration of half-maximal effect; tags give direction and shape of the fitted curve.", "data": [{"test": "Cytotoxic Profiling in HEK 293 Cell Line of Diverse Libraries Using Quantitative High-Throughput Screening; note: nearly all actives have a fitted effect of over 60% in size", "conditions": "HEK 293 viability, ATP luminescence (CellTiter-Glo), 48-72 h; series mostly up to 115 µM", "summary_of_the_method": "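HEK 293 cells at 250 cells/well were exposed to compounds by pintool transfer for 48 or 72 hr at 37 degree Celsius, 5% CO2. Viability was read as ATP-coupled luminescence with CellTiter-Glo after 10 min at room temperature.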", "values": [{"compound": "Cn1ncc2c(C(=O)NC3CCOCC3)cc(-c3cccc(C(F)(F)F)c3)nc21", "Potency": "inactive"}, {"compound": "COc1cccc(CN2CCOC3CCN(C(=O)c4ccccc4)CC3C2=O)c1", "note": "(stereo not given)", "Potency": "inactive"}, {"compound": "COC1CCN(C(=O)c2ccnc(-c3nnc4ccc(N(C)c5ccccc5)nn34)c2)CC1", "Potency": "inconclusive: 50.1 µM [inhibitor, partial curve, poor fit]"}, {"compound": "O=C(Nc1ccccc1)N1CCC(C(=O)N2CCC(N3CCOC3=O)CC2)CC1", "Potency": "inactive"}, {"compound": "COc1cccc(CN2CCOC3(CCN(Cc4ccc(OC)nc4)CC3)C2=O)c1", "Potency": "inconclusive: 89.1 µM [inhibitor, partial curve, poor fit]"}, {"compound": "Cc1ccc(F)cc1S(=O)(=O)N1C[C@@H](F)C[C@H]1C(=O)N1CCc2ccccc2C1", "Potency": "inconclusive: 89.1 µM [inhibitor, single point]"}, {"compound": "c1ccc(-c2cc3c(ccn3Cc3ccncc3)c(N3CCOCC3)n2)cc1", "Potency": "inconclusive: 56.2 µM [inhibitor, partial curve, poor fit]"}, {"compound": "O=C1NCCCCCCN(C(=O)c2cc(CN3CCOCC3)on2)[C@H]2CCCC[C@@H]12", "Potency": "inactive"}, {"compound": "O=C(c1cccnc1)N1CCC(N2C(=O)C(OCC3CC3)C23CCCCC3)CC1", "note": "(stereo not given)", "Potency": "inconclusive: 89.1 µM [inhibitor, single point]"}, {"compound": "COc1ccccc1S(=O)(=O)NC1CCCN(C2CCCCCC2)C1", "note": "(stereo not given)", "Potency": "inconclusive: 28.2 µM [inhibitor, full curve]"}, {"compound": "Cc1cc2nc3n(c(=O)c2n1CC(=O)Nc1cccc(Br)c1)CCCC3", "Potency": "inconclusive: 89.1 µM [inhibitor, single point]"}, {"compound": "COc1ccc(Cn2c(=O)c(C(=O)NCc3cccs3)nc3cccnc32)cc1", "Potency": "inconclusive: 56.2 µM [inhibitor, partial curve, poor fit]"}, {"compound": "O=C1CCC2(CCCO2)CCN1Cc1ccccc1", "note": "(stereo not given)", "Potency": "inactive"}, {"compound": "C[C@]12CCC(=O)C=C1CCC[C@@H]2OC(=O)c1ccccc1", "Potency": "inconclusive: 50.1 µM [inhibitor, partial curve, poor fit]"}, {"compound": "Cc1noc(-c2ccccc2Cl)c1C(=O)NCCC(c1ccccc1)c1ccccc1", "Potency": "active: 25.1 µM"}, {"compound": "Cc1ccccc1C(=O)NC1CCN(c2ccc3nnc(-c4ccccc4)n3n2)CC1", "Potency": "inconclusive: 20 µM [inhibitor, full curve, poor fit]"}, {"compound": "O=C(C1CCN(S(=O)(=O)N2CCOCC2)CC1)N1CCC(CCOc2ccc(F)cc2)C1", "note": "(stereo not given)", "Potency": "active: 44.7 µM"}, {"compound": "COc1ccccc1CN1C[C@@H](CO)[C@H](c2ccccn2)C1", "Potency": "inconclusive: 56.2 µM [inhibitor, partial curve, poor fit]"}, {"compound": "COc1ccc(C(=O)N[C@@H]2CCC[C@@H]2C(=O)N2CCN(c3cccc(Cl)c3)CC2)cn1", "Potency": "inconclusive: 100 µM [inhibitor, partial curve, poor fit]"}, {"compound": "COc1cccc(Nc2ncc(-c3ccc(OC)nc3)c3c2OCC3)c1", "Potency": "inconclusive: 100 µM [inhibitor, partial curve, poor fit]"}, {"compound": "COc1cc(NC(=O)c2cc3c(N4CCSCC4)nc(C)cn3n2)cc(OC)c1", "Potency": "inconclusive: 28.2 µM [inhibitor, full curve, poor fit]"}, {"compound": "CCN(Cc1ccccc1)C(=O)c1cc(COc2ccccc2)[nH]n1", "Potency": "inconclusive: 89.1 µM [inhibitor, single point]"}, {"compound": "O=C(c1cc(F)ccc1Br)N1CCN(c2ccnc3ccnn23)CC1", "Potency": "inconclusive: 44.7 µM [inhibitor, partial curve, poor fit]"}, {"compound": "O=C(Cn1ccn2nc(-c3ccc(F)cc3)c(CO)c2c1=O)Nc1ccccc1F", "Potency": "inconclusive: 79.4 µM [inhibitor, partial curve, poor fit]"}, {"compound": "CCN1CCN(C(=O)c2ccc3nnc(Cc4ccc(Cl)cc4)n3c2)CC1", "Potency": "inactive"}, {"compound": "COCCNc1c(-c2noc(C)c2C(=O)Nc2ccc(OC)cc2)cnn1C", "Potency": "inconclusive: 35.5 µM [inhibitor, full curve, poor fit]"}, {"compound": "Cn1ncc2c(NCCc3cn4ccccc4n3)nc(C3CCCC3)nc21", "Potency": "inconclusive: 89.1 µM [inhibitor, partial curve, poor fit]"}, {"compound": "CCc1ccc(N2CC(c3noc(-c4sccc4C)n3)CC2=O)cc1", "note": "(stereo not given)", "Potency": "active: 79.4 µM"}, {"compound": "O=C(NCC1CC1)c1nc2cccnc2n(CCc2ccccc2)c1=O", "Potency": "inconclusive: 50.1 µM [inhibitor, partial curve, poor fit]"}, {"compound": "COc1cc(NC(=O)CC2=C3CCCCC3NC2=O)cc(OC)c1", "note": "(stereo not given)", "Potency": "inactive"}, {"compound": "Cc1ccc(Cn2c(C3CCN(C(=O)c4cc(C)cc(C)c4)CC3)n[nH]c2=O)cc1", "Potency": "inconclusive: 89.1 µM [inhibitor, single point]"}, {"compound": "CCC(C)NC(=O)C1COC2(CCN(C(=O)c3ccc(OC)cc3)CC2)N1C(=O)c1ccc(C)cc1", "note": "(stereo not given)", "Potency": "inconclusive: 89.1 µM [inhibitor, partial curve, poor fit]"}, {"compound": "COc1ccc(CNC(=O)[C@@H]2Cc3nc[nH]c3CN2Cc2ccc(OC)c3ccccc23)cc1", "Potency": "inconclusive: 50.1 µM [inhibitor, partial curve, poor fit]"}, {"compound": "CCCN1CCN(C(=O)c2cc(-c3ccc(F)cc3)cn2CC)CC1", "Potency": "inconclusive: 50.1 µM [inhibitor, partial curve, poor fit]"}, {"compound": "CCn1cc(CN(C)C(=O)c2ccc3c(c2)C(O)CCCCCN3C)c(C)n1", "note": "(stereo not given)", "Potency": "inconclusive: 50.1 µM [inhibitor, partial curve, poor fit]"}, {"compound": "O=C(c1ccc(F)cc1)N1CCCCCC1c1nnc(-c2ccccc2)o1", "note": "(stereo not given)", "Potency": "inconclusive: 89.1 µM [inhibitor, partial curve, poor fit]"}, {"compound": "O=C(NCc1nnc2ccc(-c3ccccc3)nn12)c1ccoc1", "Potency": "inactive"}, {"compound": "O=C(NCc1cccc(Cl)c1)C1CCCN(c2ccnc3ccnn23)C1", "note": "(stereo not given)", "Potency": "inconclusive: 50.1 µM [inhibitor, partial curve, poor fit]"}, {"compound": "COc1ccc(C(=O)NCc2nnc3c(-c4nc(C5CC5)no4)cccn23)c(C)c1", "Potency": "inconclusive: 89.1 µM [inhibitor, single point]"}, {"compound": "O=C(NC1CCN(Cc2cccc(-c3cccs3)c2)CC1)c1ccc(F)cc1", "Potency": "inconclusive: 50.1 µM [inhibitor, partial curve, poor fit] and inconclusive: 89.1 µM [inhibitor, single point]"}]}]}
